Our source for the activity change, negative = inhibition values is PubChem BioAssay AID1745853 (National Center for Advancing Translational Sciences (NCATS), 2022).

What all share (experiment): Primary Screen for Target Class Profiling of Small Molecule Inhibitors of Methyltransferases
Assay [1] deals with Glycine N-methyltransferase (Homo sapiens) (UniProt Q14749). Particulars: purified enzyme, MTase-Glo SAH luminescence; measured here: GNMT inhibition; at 40 µM; stronger effect = lower value. Summed up:
(§1)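 Each enzyme was reacted with SAM and its substrate, with compounds tested once at 40 uM; SAH formed was read by MTase-Glo luminescence.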

Assay [2] has as its target Guanidinoacetate N-methyltransferase (Homo sapiens) (UniProt Q14353). The note with it: purified enzyme, MTase-Glo SAH luminescence; measured here: GAMT inhibition; at 40 µM; stronger effect = lower value. Summed up: as §1
The target of assay [3] is Histamine N-methyltransferase (Homo sapiens) (UniProt P50135). Particulars: purified enzyme, MTase-Glo SAH luminescence; measured here: HNMT inhibition; at 40 µM; stronger effect = lower value. The essentials: as §1
Assay [4] concerns the target Nicotinamide N-methyltransferase (Homo sapiens) (UniProt P40261). The note with it: purified enzyme, MTase-Glo SAH luminescence; measured here: NNMT inhibition; at 40 µM; stronger effect = lower value. Summed up:
as §1

In assay [5] the target is Phenylethanolamine N-methyltransferase (Homo sapiens) (UniProt P11086). The note with it: purified enzyme, MTase-Glo SAH luminescence; measured here: PNMT inhibition; at 40 µM; stronger effect = lower value. Summed up:
as §1

Structures are written as SMILES. “And” between values parts separate entries of the source, which are not always exact repeats. Identical values can stand only once. The list shows a part of the results. The main result of the screen is listed elsewhere. These columns were measured beside it and carry no call.
On the % scale 0 is the no-effect control and ±100 the full control effect.

On to `O=C(C1CCCCC1)N1C[C@@H]2C[C@H](C1)c1c(-c3cncnc3)ccc(=O)n1C2`, for which the activity change, negative = inhibition in assay [1] was -3.23%; in assay [2], -7.24%; in assay [3] it was -1.9%; in assay [4], -9.97%; in assay [5] it was -3.58%.

Take `c1ccc2sc(C3(N4CCCCC4)CCCCC3)cc2c1`: the activity change, negative = inhibition in assay [1] is -4.24%; in assay [2], 4.34%; in assay [3] it was -18.5%; in assay [4] it was -9.66%; in assay [5] it was 7.76%.

With `COc1cccc(NC(=O)N2Cc3ccccc3-n3cccc3C2c2ccc(N(C)C)cc2)c1` (stereo not given), the activity change, negative = inhibition is 1.67% in assay [1]; 2.84% in assay [2]; -4.56% in assay [3]; -3.33% in assay [4]; -2.45% in assay [5].

Turning to `CSc1cccc(NC(=O)N2Cc3ccccc3-n3cccc3C2c2cccs2)c1` (stereo not given), the activity change, negative = inhibition was 3.42% in assay [1]; -2.5% in assay [2]; 0.775% in assay [3]; -6.36% in assay [4]; -2.15% in assay [5].

In the case of `C[N+]1(C)C2CCC1CC(OC(=O)c1c[nH]c3ccccc13)C2` (stereo not given), the activity change, negative = inhibition in assay [1] was -14.8%; in assay [2], -1.14%; in assay [3] it was -3.38%; in assay [4], -8.95%; in assay [5], 2%.

With `COc1ccc(C2c3cccn3-c3ccccc3CN2C(=O)Nc2cc(C)ccc2C)cc1OC` (stereo not given), the activity change, negative = inhibition was 13.5% in assay [1]; 3.42% in assay [2]; 5.6% in assay [3]; -1.7% in assay [4]; 7.37% in assay [5].

For `C=CCN1CC[C@]23c4c5ccc(O)c4O[C@H]2[C@@H](O)CC[C@@]3(O)[C@H]1C5`, the activity change, negative = inhibition in assay [1] was -4.5%; in assay [2], -8.7%; in assay [3], -5.45%; in assay [4], -23.4%; in assay [5], -7.02%.

Turning to `O=C(NCCN1CCC2(CC1)C(=O)NCN2c1cccc(F)c1)c1ccc(F)c(F)c1`, the activity change, negative = inhibition was -9.55% in assay [1]; -13.6% in assay [2]; -34.3% in assay [3]; -25.3% in assay [4]; -15.2% in assay [5].

`CCOCCCNC(=O)N1Cc2ccccc2-n2cccc2C1c1cccc(C)c1` (stereo not given): the activity change, negative = inhibition in assay [1] stood at 10.5%; in assay [2], 0.477%; in assay [3] it was 7.52%; in assay [4], 8.88%; in assay [5], 7.58%.

Regarding `C#CCO[C@H]1CN2CCC1CC2`, the activity change, negative = inhibition is 2.23% in assay [1]; 8.23% in assay [2]; -2.03% in assay [3]; -12.7% in assay [4]; -6.2% in assay [5].

`COc1ccc(C)cc1NC(=O)N1Cc2ccccc2-n2cccc2C1c1cccs1` (stereo not given): the activity change, negative = inhibition is 7.01% in assay [1]; 0.535% in assay [2]; -1.81% in assay [3]; -9.64% in assay [4]; -0.462% in assay [5].

Consider `CCC1c2cccn2-c2ccccc2CN1C(=O)Nc1cc(C)ccc1OC` (stereo not given), for which the activity change, negative = inhibition was -1.9% in assay [1]; 0% in assay [2]; 0.396% in assay [3]; 1.26% in assay [4]; 3.4% in assay [5].

Take `CCN1C[C@]2(OC(=O)c3ccccc3NC(C)=O)CC[C@H](OC)[C@@]34[C@@H]2C[C@@H]([C@@H]13)[C@@]1(O)C[C@H](OC)[C@H]2C[C@@H]4[C@]1(O)[C@H]2OC`: the activity change, negative = inhibition was 7.41% in assay [1]; 4.27% in assay [2]; 15.3% in assay [3]; -10.6% in assay [4]; 4.19% in assay [5].

On to `CCOC(=O)CNC(=O)N1Cc2ccccc2-n2cccc2C1c1ccccc1C` (stereo not given), for which the activity change, negative = inhibition in assay [1] was 15.2%; in assay [2], 0.247%; in assay [3], 8.74%; in assay [4], 9.86%; in assay [5] it was 11.7%.

As to `COc1cc(OC)c(NC(=O)N2Cc3ccccc3-n3cccc3C2c2ccccc2)cc1Cl` (stereo not given), the activity change, negative = inhibition in assay [1] is 5.16%; in assay [2] it was 4.91%; in assay [3] it was -3.02%; in assay [4], 0.656%; in assay [5], -0.715%.

Turning to `O=C(Nc1ccc2c(c1)OCCO2)N1Cc2ccccc2-n2cccc2C1c1cccc(Cl)c1` (stereo not given), the activity change, negative = inhibition was 9.11% in assay [1]; 4.64% in assay [2]; 1.31% in assay [3]; -3.02% in assay [4]; 1.38% in assay [5].

As for `CCOc1ccc2c(n1)CCNC2`, the activity change, negative = inhibition was -1.14% in assay [1]; -4.85% in assay [2]; 0.05% in assay [3]; -1.46% in assay [4]; -2.47% in assay [5].

Turning to `Cc1ccc(NC(=O)N2Cc3ccccc3-n3cccc3C2c2ccc(N(C)C)cc2)cc1` (stereo not given), the activity change, negative = inhibition in assay [1] was 10.9%; in assay [2], 0%; in assay [3], 4.27%; in assay [4], 8.23%; in assay [5], 9.9%.

For `CCOc1ccc(NC(=O)N2Cc3ccccc3-n3cccc3C2c2ccccc2)cc1` (stereo not given), the activity change, negative = inhibition was 3.35% in assay [1]; -3.28% in assay [2]; -2.27% in assay [3]; -5.34% in assay [4]; -3.42% in assay [5].

As to `COc1ccc(NC(=O)N2Cc3ccccc3-n3cccc3C2c2ccccc2)c(OC)c1` (stereo not given), the activity change, negative = inhibition in assay [1] was 5.25%; in assay [2], 3.67%; in assay [3], -0.102%; in assay [4], 0.176%; in assay [5], 3.62%.

As for `CN1CC[C@@]2(C)c3cc(O)ccc3N(C)C12` (stereo not given in full), the activity change, negative = inhibition was -56.2% in assay [1]; -19.2% in assay [2]; -16.5% in assay [3]; -19.6% in assay [4]; -28.9% in assay [5].

`CCc1ccc(C2c3cccn3-c3ccccc3CN2C(=O)Nc2ccccc2CC)cc1` (stereo not given): the activity change, negative = inhibition in assay [1] amounted to 13.9%; in assay [2], 0%; in assay [3], 6.45%; in assay [4], 0.517%; in assay [5], 7.4%.

On to `O=C(NCc1ccccc1)N1Cc2ccccc2-n2cccc2C1c1ccccc1Cl` (stereo not given), for which the activity change, negative = inhibition in assay [1] was -0.611%; in assay [2], -6.66%; in assay [3], 1.25%; in assay [4] it was -6.22%; in assay [5], -3.56%.

Take `CNc1ccc2oc(C[C@H]3O[C@@]4(CC[C@H]3C)O[C@H]([C@H](C)C(=O)c3ccc[nH]3)[C@H](C)C[C@H]4C)nc2c1C(=O)O`: the activity change, negative = inhibition was -63.5% in assay [1]; -65.2% and -19.1% in assay [2]; -11.8% in assay [3]; -63.9% and -9.77% in assay [4]; -81.8% and -23.5% in assay [5].

Take `CC(C)C1c2cccn2-c2ccccc2CN1C(=O)Nc1ccccc1F` (stereo not given): the activity change, negative = inhibition was 1.83% in assay [1]; 0% in assay [2]; -5.54% in assay [3]; 1.43% in assay [4]; 5.32% in assay [5].

For the compound `COc1ccc2c(c[n+](C)c3c4cc5c(cc4ccc23)OCO5)c1OC`, the activity change, negative = inhibition in assay [1] is -83.8%; in assay [2], -31.1%; in assay [3], -13.9%; in assay [4] it was -28.9%; in assay [5] it was -42.2%.

Take `Cc1c(Cl)cccc1S(=O)(=O)Nc1nc(CC(=O)N2CCN(C)CC2)cs1`: the activity change, negative = inhibition was 4.16% in assay [1]; 1.93% in assay [2]; 9.71% in assay [3]; -13.3% in assay [4]; 0.565% in assay [5].

As to `COc1ccc(C2c3cccn3-c3ccccc3CN2C(=O)Nc2cccc(Cl)c2)cc1OC` (stereo not given), the activity change, negative = inhibition in assay [1] was determined as 14.9%; in assay [2], 1.17%; in assay [3], 9.13%; in assay [4] it was 11.2%; in assay [5], 11%.

Consider `Cc1cccc(C2c3cccn3-c3ccccc3CN2C(=O)NCCc2ccccc2)c1` (stereo not given), for which the activity change, negative = inhibition in assay [1] is 7.19%; in assay [2] it was 0%; in assay [3] it was -1.08%; in assay [4] it was 0.39%; in assay [5], 5%.

Turning to `Cc1cccnc1CN1CCN2C(=O)N(c3ccccc3)C[C@H]2C1`, the activity change, negative = inhibition in assay [1] was -3.65%; in assay [2], -2.75%; in assay [3] it was 0.298%; in assay [4], -0.862%; in assay [5], 1.94%.

Consider `Cc1ccccc1NC(=O)N1Cc2ccccc2-n2cccc2C1c1ccccc1C` (stereo not given), for which the activity change, negative = inhibition in assay [1] turned out to be 13.8%; in assay [2] it was 0%; in assay [3] it was 10%; in assay [4], 0.648%; in assay [5], 10.3%.
